Screen size: about 410,000 compounds; about 7,200 (1.8%) were called active. The shares of active, inactive and inconclusive entries below differ from those in the screen. The call rests on the fitted dose curve; in most records, active means well fitted activation curve with a large enough effect; inconclusive means small, poorly fitted or top-dose-only effect, or another doubt; inactive means no such curve, though single readings can be large or run the other way. Where the call is inconclusive, the potency comes from a doubtful curve fit.
Assay: qHTS of TDP-43 Inhibitors; further: nearly all actives have a fitted effect of over 50% in size; on growth rescue (activation): % of control where 0% means no effect
Conditions: TDP-43 expressing yeast growth rescue, BacTiter-Glo, 24 h; growth rescue (activation): at 46.1 µM (top of the series) unless noted
Procedure, shortened: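 In this qHTS, compounds that restore growth of yeast expressing TDP-43 appear as activators. Cells (OD600=0.02, galactose medium, raffinose-pregrown) are incubated with compound 24 hr at 30 deg C and growth is quantified by BacTiter-Glo.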
Potency means the concentration at half of the fitted maximal effect; tags describe the fitted curve by direction and shape.

Potency, active:
O=c1c2sccc2nc(SCc2ccc([N+](=O)[O-])cc2)n1Cc1ccccn1 22.4 µM, CSc1nc2ccc(NS(=O)(=O)c3c(Cl)cccc3Cl)cc2s1 10 µM, Cc1ccc2oc(=O)n(CCCOc3ccccc3)c2c1 35.5 µM, Clc1cccc(CSc2nnc(-c3ccccn3)n2Cc2ccco2)c1 20 µM, N#Cc1cn(CCOc2ccc(F)cc2)c2ccccc12 20 µM, Cc1cc(C)nc(Nc2ccc(F)cc2)n1 25.1 µM, CC(=O)c1ccc(C(=O)N(Cc2cccnc2)c2nc3c(C)c(C)ccc3s2)cc1 22.4 µM, O=C(OCC(=O)c1c[nH]c2ccccc12)c1cncc(Br)c1 11.2 µM

Potency, inactive:
CC1(C(=O)NS(=O)(=O)c2ccc(C#N)cc2)CCN1C(=O)C1(c2ccc(Cl)cc2)CCC1 (stereo not given), Cc1ccc(Cl)cc1N1CCN(C(=O)c2ccc3c(Cl)c4c(nc3c2)CCCC4)CC1, CCOC(=O)CC1=NS(=O)(=O)c2ccccc2N1, CC(C)CCNC(=O)c1cnc2sc(N3CCCCCC3)nn2c1=O, CCN(CC)S(=O)(=O)c1ccc2c(c1)nc(CN(C)C(=O)Nc1ccc(C)c(Cl)c1)n2C, O=S(=O)(c1ccc(Br)cc1)c1nnn2c1nc(NCCc1ccccc1)c1sccc12, CCN1CCN(C(=O)c2ccc3c(c2)c(C)c(C)n3Cc2ccccc2)CC1, Cc1ccc(-c2nc3ccccn3c2Nc2ccccc2)o1, Cc1ccc(-c2onc(C)c2C)cc1S(=O)(=O)Nc1cccc(Cl)c1C, COc1ccc(NC(=O)N(C)C[C@@H]2Oc3cc(C#CCN(C)C)ccc3S(=O)(=O)N([C@H](C)CO)C[C@H]2C)cc1, CCc1ccc(C(=O)NC2=NC(c3cc(OC)ccc3OC)CC(=O)N2)cc1 (stereo not given), c1ccc(-c2nnc(N3CCN(c4ccccc4)CC3)nc2-c2ccccc2)cc1, Cc1ccc2occ(CC(=O)Nc3ccc(Cl)c(C(F)(F)F)c3)c2c1, COc1ccc(CNC(=O)c2ccc(-c3ccc(F)c(F)c3)c3ccoc23)cc1OC, COCCOC(=O)c1c(C)oc2ccc(OCc3ccccc3)cc12, O=C(Nc1ccc(C(=O)N2CCCC2)cc1)c1ccccc1Br, O=C(Cn1c(NCCO)nc2ccccc21)c1ccc(F)cc1

Potency, inconclusive:
Cc1cccc(N2CCN(C(=O)c3ccc(Cl)c(S(=O)(=O)NCc4ccco4)c3)CC2)c1C 25.1 µM [activator, single point], COc1ccc(/C(N)=N/OC(=O)c2ccc(Br)o2)cc1 10 µM [activator, partial curve], Cc1ccccc1S(=O)(=O)N1[C@@H](c2ccccc2)C(C(=O)O)=CC[C@H]1c1ccc(Cl)cc1 35.5 µM [activator, single point], O=C(Nc1ccccc1)c1cccc(N2CCCS2(=O)=O)c1 3.98 µM [activator, full curve, poor fit], CCC(C)N(C(=O)COC(=O)c1cn(CC)c2nc(C)ccc2c1=O)C1CCS(=O)(=O)C1 (stereo not given) 35.5 µM [activator, single point], COc1ccc(OC)c(-c2nnc(SCC(=O)N3CCCc4ccccc43)o2)c1 25.1 µM [activator, single point], CC(C)OCCCNC(=O)COc1ccc2oc3c(c2c1)CCCC3 15.8 µM [activator, single point], COc1cccc(Nc2ncccc2C(=O)NCc2ccccc2)c1 35.5 µM [activator, single point], N#Cc1c(-n2cccc2/C=N/O)sc2c1CCCC2 12.6 µM [activator, partial curve], Cc1ccccc1CN(C)C(=O)CNC(=O)c1ccc2ccccc2c1 11.2 µM [activator, partial curve], Fc1cccc(Nc2nc(N3CCOCC3)nc(N3CCOCC3)n2)c1 15.8 µM [activator, partial curve], O=S(=O)(Nc1ccc(O)c(Sc2nc3ccccc3s2)c1)c1cc(Cl)ccc1Cl 35.5 µM [activator, single point], Clc1ccc(-c2nnnn2-c2ccc(Cl)c(Cl)c2)cc1Cl 15.8 µM [activator, single point], O=C(COC(=O)c1cc(Br)ccc1Cl)NC1CCCC1 10 µM [activator, partial curve], Cc1ccc2cc3c(NC(=O)c4ccco4)nn(C)c3nc2c1 35.5 µM [activator, single point], O=C(COC(=O)c1c2c(nc3ccccc13)CCCCC2)c1ccc(Cl)s1 31.6 µM [activator, single point], Cc1cc(C)c(CSc2ncc(-c3ccc([N+](=O)[O-])cc3)[nH]2)c(C)c1 31.6 µM [activator, single point], COc1ccc(CCNC(=O)c2nonc2N)cc1 0.501 µM [activator, full curve, poor fit], CCOC(=O)C(C)Oc1ccc(NC(=O)C(Cl)(Cl)Cl)cc1 (stereo not given) 25.1 µM [activator, single point], CC1=C(C#N)C(=O)NC(=O)/C1=C\c1ccc(-c2cc(C)c(C)cc2[N+](=O)[O-])o1 35.5 µM [activator, single point], COc1ccccc1NC(=O)COc1ccccc1C(=O)Nc1ccccc1 22.4 µM [activator, single point], FC(F)(F)Oc1ccc(Nc2nc3ccccc3o2)cc1 6.31 µM [activator, full curve, poor fit], O=C(NCC1(c2ccccc2)CCCC1)c1cccc(Br)c1 31.6 µM [activator, partial curve], Cc1nc2ccc(S(=O)(=O)NC(C(=O)N3CCN(c4cccc(Cl)c4)CC3)C(C)C)cc2s1 (stereo not given) 22.4 µM [activator, partial curve], O=C(CCCc1cccs1)N1CCN(S(=O)(=O)c2ccccc2Br)CC1 12.6 µM [activator, single point], COC(=O)C1=C(C)NC(C)=C(C(=O)OCC2CCCO2)C1c1cccc(Cl)c1 (stereo not given) 22.4 µM [activator, partial curve, poor fit], COC(=O)c1ccc(-c2nc(-c3ccc(OC)c(OC)c3)no2)cc1 2.82 µM [activator, full curve, poor fit], O=S(=O)(NCCSc1ccc(Cl)cc1)c1ccc2c(c1)OCCO2 25.1 µM [activator, single point], Cc1nc(N2CCCC2)ncc1C(=O)NCc1ccc(F)cc1 0.562 µM [activator, full curve, poor fit], O=C(Nc1ccc(Nc2ccncc2)cc1)c1ccc(Nc2ccnc3ccc([N+](=O)[O-])cc23)cc1 2.82 µM [activator, partial curve], COc1ccc([N+](=O)[O-])cc1NC(=O)CCc1ccccc1 2 µM [activator, partial curve], COc1ccc(CCNS(=O)(=O)c2ccc3c(c2)OCCO3)cc1OC 11.2 µM [activator, partial curve], O=C(Cc1ccccc1F)Nc1cccc2cccnc12 28.2 µM [activator, partial curve, poor fit], CC(C)NC(=O)Nc1cccc2c1O[C@H](CN(C)C(=O)NC1CCCCC1)[C@H](C)CN([C@H](C)CO)C2=O 3.16 µM [activator, partial curve], C=CCN(CC=C)C(=S)NC(=O)c1ccc(C)c(Br)c1 22.4 µM [activator, single point], O=C1CN(C(=O)COc2ccc(Cl)cc2)C(c2ccc(F)cc2)c2cc(Cl)ccc2N1 (stereo not given) 11.2 µM [activator, partial curve, poor fit], O=C1NC2=C(C(=O)CCC2)C(c2cccc([N+](=O)[O-])c2)N1 (stereo not given) 5.62 µM [activator, single point], Cc1nnc(-c2cccc(C(F)(F)F)c2)nc1N1CCOCC1 12.6 µM [activator, single point], Cc1nc(SCc2nc3ccccc3[nH]2)c2oc3ccccc3c2n1 35.5 µM [activator, single point], CCOC(=O)c1ccccc1NC(=O)c1cc2c(s1)-c1ccccc1SC2 3.16 µM [activator, partial curve], COC(=O)c1sccc1S(=O)(=O)N1CCN(c2ccc(Cl)cc2)CC1 31.6 µM [activator, partial curve], O=C(COn1nnc2ccc(Cl)cc21)Nc1ccc(F)cc1 11.2 µM [activator, partial curve], CCC1CCCCN1C(=O)CSc1nc2ccsc2c(=O)n1Cc1ccccc1 (stereo not given) 11.2 µM [activator, single point]

Growth rescue (activation), inconclusive:
CC(C)CC(=O)NC(=S)NCc1ccccc1 37.8% [activator], O=C(Nc1ccc(Br)cc1)C1CCN(c2ncccn2)CC1 25.4% [activator]
